Where a chain is given by its changes, count along the chain named. Some of the results follow.
T1: RBFOX1 RRM (Homo sapiens, UniProt Q9NWB1 109-208)
T1 sequence: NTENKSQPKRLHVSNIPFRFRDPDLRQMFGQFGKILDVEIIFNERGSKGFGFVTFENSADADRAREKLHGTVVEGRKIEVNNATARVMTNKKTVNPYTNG

B1: GACCAUA (DNA:RNA)
RNA: GGGAGACCGGAAUUCAGAUUGUCCGACCAUAUUAAAUCCCGUCGUAGCCACCA
DNA 1: CAATCTGAATTCCGGTCTCCC
DNA 2: TGGTGGCTACGACGGGATT
B2: GCGGUUU (DNA:RNA)
RNA: B1 RNA with A26C, C27G, C28G, A29U, A31U
DNA 1: CAATCTGAATTCCGGTCTCCC
DNA 2: TGGTGGCTACGACGGGATT
B3: AAACACG (DNA:RNA)
RNA: B1 RNA with G25A, C27A, U30C, A31G
DNA 1: CAATCTGAATTCCGGTCTCCC
DNA 2: TGGTGGCTACGACGGGATT
B4: AACUGUA (DNA:RNA)
RNA: B1 RNA with G25A, C28U, A29G
DNA 1: CAATCTGAATTCCGGTCTCCC
DNA 2: TGGTGGCTACGACGGGATT
B5: CUCCUGG (DNA:RNA)
RNA: B1 RNA with G25C, A26U, A29U, U30G, A31G
DNA 1: CAATCTGAATTCCGGTCTCCC
DNA 2: TGGTGGCTACGACGGGATT
B6: CACAGUG (DNA:RNA)
RNA: B1 RNA with G25C, C28A, A29G, A31G
DNA 1: CAATCTGAATTCCGGTCTCCC
DNA 2: TGGTGGCTACGACGGGATT
B7: GAUUGUG (DNA:RNA)
RNA: B1 RNA with C27U, C28U, A29G, A31G
DNA 1: CAATCTGAATTCCGGTCTCCC
DNA 2: TGGTGGCTACGACGGGATT
B8: UCAAGGA (DNA:RNA)
RNA: B1 RNA with G25U, A26C, C27A, C28A, A29G, U30G
DNA 1: CAATCTGAATTCCGGTCTCCC
DNA 2: TGGTGGCTACGACGGGATT
B9: CUUAAUG (DNA:RNA)
RNA: B1 RNA with G25C, A26U, C27U, C28A, A31G
DNA 1: CAATCTGAATTCCGGTCTCCC
DNA 2: TGGTGGCTACGACGGGATT
B10: CGCUCUC (DNA:RNA)
RNA: B1 RNA with G25C, A26G, C28U, A29C, A31C
DNA 1: CAATCTGAATTCCGGTCTCCC
DNA 2: TGGTGGCTACGACGGGATT
B11: UCGUUGU (DNA:RNA)
RNA: GGGAGACCGGAAUUCAGAUUGUCCUCGUUGUUUAAAUCCCGUCGUAGCCACCA
DNA 1: CAATCTGAATTCCGGTCTCCC
DNA 2: TGGTGGCTACGACGGGATT
B12: CCGUAUA (DNA:RNA)
RNA: B1 RNA with G25C, A26C, C27G, C28U
DNA 1: CAATCTGAATTCCGGTCTCCC
DNA 2: TGGTGGCTACGACGGGATT
B13: CGAUCUG (DNA:RNA)
RNA: B1 RNA with G25C, A26G, C27A, C28U, A29C, A31G
DNA 1: CAATCTGAATTCCGGTCTCCC
DNA 2: TGGTGGCTACGACGGGATT
B14: GCGGGUC (DNA:RNA)
RNA: B1 RNA with A26C, C27G, C28G, A29G, A31C
DNA 1: CAATCTGAATTCCGGTCTCCC
DNA 2: TGGTGGCTACGACGGGATT
B15: UACAAGC (DNA:RNA)
RNA: B1 RNA with G25U, C28A, U30G, A31C
DNA 1: CAATCTGAATTCCGGTCTCCC
DNA 2: TGGTGGCTACGACGGGATT
B16: CCAGGCA (DNA:RNA)
RNA: B1 RNA with G25C, A26C, C27A, C28G, A29G, U30C
DNA 1: CAATCTGAATTCCGGTCTCCC
DNA 2: TGGTGGCTACGACGGGATT
B17: GCGCCAU (DNA:RNA)
RNA: B11 RNA with U25G, U28C, U29C, G30A
DNA 1: CAATCTGAATTCCGGTCTCCC
DNA 2: TGGTGGCTACGACGGGATT
B18: UCUCAAU (DNA:RNA)
RNA: B11 RNA with G27U, U28C, U29A, G30A
DNA 1: CAATCTGAATTCCGGTCTCCC
DNA 2: TGGTGGCTACGACGGGATT
B19: CUGCUAG (DNA:RNA)
RNA: B11 RNA with U25C, C26U, U28C, G30A, U31G
DNA 1: CAATCTGAATTCCGGTCTCCC
DNA 2: TGGTGGCTACGACGGGATT
B20: AGGUGGU (DNA:RNA)
RNA: B11 RNA with U25A, C26G, U29G
DNA 1: CAATCTGAATTCCGGTCTCCC
DNA 2: TGGTGGCTACGACGGGATT
B21: AUGGCAA (DNA:RNA)
RNA: B1 RNA with G25A, A26U, C27G, C28G, A29C, U30A
DNA 1: CAATCTGAATTCCGGTCTCCC
DNA 2: TGGTGGCTACGACGGGATT
B22: GCCAUAG (DNA:RNA)
RNA: B1 RNA with A26C, C28A, A29U, U30A, A31G
DNA 1: CAATCTGAATTCCGGTCTCCC
DNA 2: TGGTGGCTACGACGGGATT
B23: AUUACAA (DNA:RNA)
RNA: B1 RNA with G25A, A26U, C27U, C28A, A29C, U30A
DNA 1: CAATCTGAATTCCGGTCTCCC
DNA 2: TGGTGGCTACGACGGGATT
B24: GGGUUUG (DNA:RNA)
RNA: B11 RNA with U25G, C26G, G30U, U31G
DNA 1: CAATCTGAATTCCGGTCTCCC
DNA 2: TGGTGGCTACGACGGGATT
B25: AGGAUAU (DNA:RNA)
RNA: B11 RNA with U25A, C26G, U28A, G30A
DNA 1: CAATCTGAATTCCGGTCTCCC
DNA 2: TGGTGGCTACGACGGGATT
B26: AUCUUUC (DNA:RNA)
RNA: B1 RNA with G25A, A26U, C28U, A29U, A31C
DNA 1: CAATCTGAATTCCGGTCTCCC
DNA 2: TGGTGGCTACGACGGGATT
B27: GUAGUAU (DNA:RNA)
RNA: B11 RNA with U25G, C26U, G27A, U28G, G30A
DNA 1: CAATCTGAATTCCGGTCTCCC
DNA 2: TGGTGGCTACGACGGGATT
B28: CGCUCUA (DNA:RNA)
RNA: B1 RNA with G25C, A26G, C28U, A29C
DNA 1: CAATCTGAATTCCGGTCTCCC
DNA 2: TGGTGGCTACGACGGGATT
B29: UCAAUUA (DNA:RNA)
RNA: B11 RNA with G27A, U28A, G30U, U31A
DNA 1: CAATCTGAATTCCGGTCTCCC
DNA 2: TGGTGGCTACGACGGGATT
B30: AGGCCCC (DNA:RNA)
RNA: B1 RNA with G25A, A26G, C27G, A29C, U30C, A31C
DNA 1: CAATCTGAATTCCGGTCTCCC
DNA 2: TGGTGGCTACGACGGGATT
B31: GAUGGAU (DNA:RNA)
RNA: B1 RNA with C27U, C28G, A29G, U30A, A31U
DNA 1: CAATCTGAATTCCGGTCTCCC
DNA 2: TGGTGGCTACGACGGGATT

These binders were tested against T1, RBFOX1 RRM (assay: EMSA; HiTS-Eq, 1 nM pool, 10 min; buffer printed only for the single-RNA assays: 10 mM Tris pH 7.5, 150 mM NaCl, 3.4 mM EDTA, 0.001% NP-40, 30 C). Settings: tags: His6 N-terminal (pET28a); label: 5' 32P.
Summary of the method: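 Relative association constants, normalised to the cognate motif, were derived by comparing read counts of each RNA species with those of the control reaction. The RNA sequenced was the free fraction, separated by 8% native PAGE after a 10 min equilibration in 50 µL of 1 nM 5′-radiolabelled RNA (7 randomized nucleotides) with increasing concentrations of purified wild-type or mutant RbFox RRM.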
For B1, the binding signal was 0.000784 KA relative to UGCAUGU. B2 was tested, and the binding signal was 0.0229 KA relative to UGCAUGU. With B3 the binding signal was 0.00204 KA relative to UGCAUGU. With B4 the binding signal was 0.0028 KA relative to UGCAUGU. In the case of B5, the binding signal is reported as 0.0165 KA relative to UGCAUGU. With B6 the binding signal was 0.00627 KA relative to UGCAUGU. In the case of B7, the binding signal is reported as 0.0275 KA relative to UGCAUGU. In the case of B8, the binding signal is reported as 0.00364 KA relative to UGCAUGU. B9 was tested, and the binding signal was 0.00937 KA relative to UGCAUGU. In the case of B10, the binding signal is reported as 0.0105 KA relative to UGCAUGU. In the case of B11, the binding signal is reported as 0.025 KA relative to UGCAUGU. For B12, the binding signal was 0.00237 KA relative to UGCAUGU. With B13 the binding signal was 0.0167 KA relative to UGCAUGU. With B14 the binding signal was 0.0163 KA relative to UGCAUGU. In the case of B15, the binding signal is reported as 0.00451 KA relative to UGCAUGU. For B16, the binding signal was 0.0107 KA relative to UGCAUGU. For B17, the binding signal was 0.00645 KA relative to UGCAUGU. B18 was tested, and the binding signal was 0.0038 KA relative to UGCAUGU. In the case of B19, the binding signal is reported as 0.0317 KA relative to UGCAUGU. For B20, the binding signal was 0.0164 KA relative to UGCAUGU. B21 was tested, and the binding signal was 0.0106 KA relative to UGCAUGU. In the case of B22, the binding signal is reported as 0.00949 KA relative to UGCAUGU. For B23, the binding signal was 0.000272 KA relative to UGCAUGU. B24 was tested, and the binding signal was 0.0349 KA relative to UGCAUGU. With B25 the binding signal was 0.01 KA relative to UGCAUGU. With B26 the binding signal was 0.00443 KA relative to UGCAUGU. With B27 the binding signal was 0.00671 KA relative to UGCAUGU. For B28, the binding signal was 0.0105 KA relative to UGCAUGU. For B29, the binding signal was 0.00266 KA relative to UGCAUGU. With B30 the binding signal was 0.00512 KA relative to UGCAUGU. B31 was tested, and the binding signal was 0.00685 KA relative to UGCAUGU.

From publication PMC9911399, “Two distinct binding modes provide the RNA-binding protein RbFox with extraordinary sequence specificity”
